The chains are these.
T1: RBFOX1 RRM (Homo sapiens, UniProt Q9NWB1 109-208)
T1 sequence: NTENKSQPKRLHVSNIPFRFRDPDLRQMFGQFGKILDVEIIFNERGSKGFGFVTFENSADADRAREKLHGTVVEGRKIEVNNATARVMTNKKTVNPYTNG

B1: UAAAUUG (DNA:RNA)
RNA: GGGAGACCGGAAUUCAGAUUGUCCUAAAUUGUUAAAUCCCGUCGUAGCCACCA
DNA 1: CAATCTGAATTCCGGTCTCCC
DNA 2: TGGTGGCTACGACGGGATT
B2: UUGCCCG (DNA:RNA)
RNA: B1 RNA with A26U, A27G, A28C, U29C, U30C
DNA 1: CAATCTGAATTCCGGTCTCCC
DNA 2: TGGTGGCTACGACGGGATT
B3: AUAGCGA (DNA:RNA)
RNA: B1 RNA with U25A, A26U, A28G, U29C, U30G, G31A
DNA 1: CAATCTGAATTCCGGTCTCCC
DNA 2: TGGTGGCTACGACGGGATT
B4: CGACCAG (DNA:RNA)
RNA: B1 RNA with U25C, A26G, A28C, U29C, U30A
DNA 1: CAATCTGAATTCCGGTCTCCC
DNA 2: TGGTGGCTACGACGGGATT
B5: UAUGUGA (DNA:RNA)
RNA: B1 RNA with A27U, A28G, U30G, G31A
DNA 1: CAATCTGAATTCCGGTCTCCC
DNA 2: TGGTGGCTACGACGGGATT
B6: UUGCAUC (DNA:RNA)
RNA: B1 RNA with A26U, A27G, A28C, U29A, G31C
DNA 1: CAATCTGAATTCCGGTCTCCC
DNA 2: TGGTGGCTACGACGGGATT
B7: AAUCGCU (DNA:RNA)
RNA: B1 RNA with U25A, A27U, A28C, U29G, U30C, G31U
DNA 1: CAATCTGAATTCCGGTCTCCC
DNA 2: TGGTGGCTACGACGGGATT
B8: CACCAGG (DNA:RNA)
RNA: B1 RNA with U25C, A27C, A28C, U29A, U30G
DNA 1: CAATCTGAATTCCGGTCTCCC
DNA 2: TGGTGGCTACGACGGGATT
B9: GUGUUAA (DNA:RNA)
RNA: B1 RNA with U25G, A26U, A27G, A28U, U30A, G31A
DNA 1: CAATCTGAATTCCGGTCTCCC
DNA 2: TGGTGGCTACGACGGGATT
B10: GCACUAU (DNA:RNA)
RNA: B1 RNA with U25G, A26C, A28C, U30A, G31U
DNA 1: CAATCTGAATTCCGGTCTCCC
DNA 2: TGGTGGCTACGACGGGATT
B11: CUGAAUU (DNA:RNA)
RNA: B1 RNA with U25C, A26U, A27G, U29A, G31U
DNA 1: CAATCTGAATTCCGGTCTCCC
DNA 2: TGGTGGCTACGACGGGATT
B12: UUCAGCG (DNA:RNA)
RNA: B1 RNA with A26U, A27C, U29G, U30C
DNA 1: CAATCTGAATTCCGGTCTCCC
DNA 2: TGGTGGCTACGACGGGATT
B13: GAGGCAA (DNA:RNA)
RNA: B1 RNA with U25G, A27G, A28G, U29C, U30A, G31A
DNA 1: CAATCTGAATTCCGGTCTCCC
DNA 2: TGGTGGCTACGACGGGATT
B14: CUAGGAG (DNA:RNA)
RNA: B1 RNA with U25C, A26U, A28G, U29G, U30A
DNA 1: CAATCTGAATTCCGGTCTCCC
DNA 2: TGGTGGCTACGACGGGATT
B15: CUGUUGC (DNA:RNA)
RNA: B1 RNA with U25C, A26U, A27G, A28U, U30G, G31C
DNA 1: CAATCTGAATTCCGGTCTCCC
DNA 2: TGGTGGCTACGACGGGATT
B16: ACGCGGG (DNA:RNA)
RNA: B1 RNA with U25A, A26C, A27G, A28C, U29G, U30G
DNA 1: CAATCTGAATTCCGGTCTCCC
DNA 2: TGGTGGCTACGACGGGATT
B17: ACGAAUU (DNA:RNA)
RNA: B1 RNA with U25A, A26C, A27G, U29A, G31U
DNA 1: CAATCTGAATTCCGGTCTCCC
DNA 2: TGGTGGCTACGACGGGATT
B18: UUUUGAA (DNA:RNA)
RNA: B1 RNA with A26U, A27U, A28U, U29G, U30A, G31A
DNA 1: CAATCTGAATTCCGGTCTCCC
DNA 2: TGGTGGCTACGACGGGATT
B19: GCGGAUA (DNA:RNA)
RNA: B1 RNA with U25G, A26C, A27G, A28G, U29A, G31A
DNA 1: CAATCTGAATTCCGGTCTCCC
DNA 2: TGGTGGCTACGACGGGATT
B20: ACGGGUG (DNA:RNA)
RNA: B1 RNA with U25A, A26C, A27G, A28G, U29G
DNA 1: CAATCTGAATTCCGGTCTCCC
DNA 2: TGGTGGCTACGACGGGATT
B21: CCGCCAG (DNA:RNA)
RNA: B1 RNA with U25C, A26C, A27G, A28C, U29C, U30A
DNA 1: CAATCTGAATTCCGGTCTCCC
DNA 2: TGGTGGCTACGACGGGATT
B22: ACAGGCA (DNA:RNA)
RNA: B1 RNA with U25A, A26C, A28G, U29G, U30C, G31A
DNA 1: CAATCTGAATTCCGGTCTCCC
DNA 2: TGGTGGCTACGACGGGATT
B23: GUAAGAA (DNA:RNA)
RNA: B1 RNA with U25G, A26U, U29G, U30A, G31A
DNA 1: CAATCTGAATTCCGGTCTCCC
DNA 2: TGGTGGCTACGACGGGATT
B24: AGCAACG (DNA:RNA)
RNA: B1 RNA with U25A, A26G, A27C, U29A, U30C
DNA 1: CAATCTGAATTCCGGTCTCCC
DNA 2: TGGTGGCTACGACGGGATT
B25: CAUGGCU (DNA:RNA)
RNA: B1 RNA with U25C, A27U, A28G, U29G, U30C, G31U
DNA 1: CAATCTGAATTCCGGTCTCCC
DNA 2: TGGTGGCTACGACGGGATT
B26: CUUUAUC (DNA:RNA)
RNA: B1 RNA with U25C, A26U, A27U, A28U, U29A, G31C
DNA 1: CAATCTGAATTCCGGTCTCCC
DNA 2: TGGTGGCTACGACGGGATT
B27: GGGAAUA (DNA:RNA)
RNA: B1 RNA with U25G, A26G, A27G, U29A, G31A
DNA 1: CAATCTGAATTCCGGTCTCCC
DNA 2: TGGTGGCTACGACGGGATT
B28: CUAACUG (DNA:RNA)
RNA: B1 RNA with U25C, A26U, U29C
DNA 1: CAATCTGAATTCCGGTCTCCC
DNA 2: TGGTGGCTACGACGGGATT
B29: CGACCAA (DNA:RNA)
RNA: B1 RNA with U25C, A26G, A28C, U29C, U30A, G31A
DNA 1: CAATCTGAATTCCGGTCTCCC
DNA 2: TGGTGGCTACGACGGGATT
B30: CUUCACC (DNA:RNA)
RNA: GGGAGACCGGAAUUCAGAUUGUCCCUUCACCUUAAAUCCCGUCGUAGCCACCA
DNA 1: CAATCTGAATTCCGGTCTCCC
DNA 2: TGGTGGCTACGACGGGATT
B31: AUUAGCU (DNA:RNA)
RNA: B30 RNA with C25A, C28A, A29G, C31U
DNA 1: CAATCTGAATTCCGGTCTCCC
DNA 2: TGGTGGCTACGACGGGATT

Residue numbers refer to the chain shown, from its start. Some of the results follow.

The target of this assay is T1, RBFOX1 RRM. Nature of the assay: EMSA; HiTS-Eq, 1 nM pool, 10 min; buffer printed only for the single-RNA assays: 10 mM Tris pH 7.5, 150 mM NaCl, 3.4 mM EDTA, 0.001% NP-40, 30 C. The following applies: tags: His6 N-terminal (pET28a); label: 5' 32P. In short, it runs like this: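 Purified RbFox RRM (wild type or mutant) was equilibrated for 10 min in 50 µL with 1 nM of a 5′-radiolabelled pool of RNA with 7 randomized nucleotides, its flanks annealed to DNA oligonucleotides, across increasing protein concentrations. Free RNA was separated by 8% native PAGE, excised, reverse-transcribed, PCR-barcoded and sequenced on an Illumina HiSeq 2500. Relative association constants came from read-count changes of each variant against the control reaction, normalised to the cognate motif.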
As to B1, the binding signal is 0.0132 KA relative to UGCAUGU.

For B2, the binding signal is 0.0225 KA relative to UGCAUGU.

Consider B3, for which the binding signal is 0.00503 KA relative to UGCAUGU.

For B4, the binding signal is 0.00738 KA relative to UGCAUGU.

With B5, the binding signal is 0.0133 KA relative to UGCAUGU.

For the molecule B6, the binding signal was 0.022 KA relative to UGCAUGU.

Take B7: the binding signal is 0.00687 KA relative to UGCAUGU.

Take B8: the binding signal is 0.00535 KA relative to UGCAUGU.

As to B9, the binding signal is 0.00646 KA relative to UGCAUGU.

Turning to B10, the binding signal is 0.00458 KA relative to UGCAUGU.

As to B11, the binding signal is 0.00817 KA relative to UGCAUGU.

B12: the binding signal was 0.0121 KA relative to UGCAUGU.

Regarding B13, the binding signal is 0.0155 KA relative to UGCAUGU.

Regarding B14, the binding signal is 0.00338 KA relative to UGCAUGU.

Turning to B15, the binding signal is 0.0237 KA relative to UGCAUGU.

In the case of B16, the binding signal is 0.013 KA relative to UGCAUGU.

In the case of B17, the binding signal is 0.00219 KA relative to UGCAUGU.

Turning to B18, the binding signal is 0.0181 KA relative to UGCAUGU.

In the case of B19, the binding signal is 0.00825 KA relative to UGCAUGU.

As to B20, the binding signal is 0.0185 KA relative to UGCAUGU.

For the molecule B21, the binding signal is 0.00933 KA relative to UGCAUGU.

With B22, the binding signal is 0.0123 KA relative to UGCAUGU.

Regarding B23, the binding signal was 0.0107 KA relative to UGCAUGU.

As for B24, the binding signal was 0.00887 KA relative to UGCAUGU.

Take B25: the binding signal was 0.0135 KA relative to UGCAUGU.

Consider B26, for which the binding signal was 0.00336 KA relative to UGCAUGU.

For B27, the binding signal was 0.0165 KA relative to UGCAUGU.

As to B28, the binding signal was 0.00774 KA relative to UGCAUGU.

For the molecule B29, the binding signal was 0.00135 KA relative to UGCAUGU.

For B30, the binding signal was 0.0029 KA relative to UGCAUGU.

For B31, the binding signal was 0.00364 KA relative to UGCAUGU.

The values are drawn from article PMC9911399, “Two distinct binding modes provide the RNA-binding protein RbFox with extraordinary sequence specificity”.
